Data from article PMC12040169 (PLOS Biology, 2025).
The other results are listed elsewhere or left out.

system: T1, C. trachomatis L2/434/Bu expressing GFP (CTL2-GFP); parameters: species or system HeLa; C. trachomatis total inclusion area by high-content imaging, normalised to DMSO; settings: total inclusion area; 28.5 h, 10 µM; inhibitor
T1 construct: L2/434/Bu GFP intracellular growth in HeLa cells
How it was run: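 High-content imaging followed the bulk GFP/resorufin measurement: fixed, Hoechst-stained cells were scored for GFP inclusions and host nuclei per well. Total inclusion area and count served as growth proxies, nuclei number as the viability proxy. MIC calculation matched the bulk assay.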

Compound	% of control remaining
CCN1CC(C(=O)Nc2nc3c(s2)CCCCCC3)CC1=O (stereo not shown) [CBK281526]	108.301
O=C(C1CC1)N1C[C@H]2CCCN(S(=O)(=O)c3cccs3)[C@H]2C1 [CBK282255]	114.383
CCc1cc(C(=O)NC(Cn2ccnc2)C(C)(C)C)cc(=O)[nH]1 (stereo not shown) [CBK304410]	107.624
O=C(Nc1snnc1-c1ccc(Cl)cc1)c1ccc(OC(F)(F)F)cc1 [CBK153247]	0.3214
CCC1SC2=NC(C)=C(C(=O)OCc3ccccc3)C(c3ccccc3)N2C1=O (stereo not shown) [CBK293960]	106.496
O=C(CCN1C(=O)/C(=C\c2cccs2)SC1=S)Nc1cc(Cl)ccc1O [CBK263643]	92.1689
CCN(Cc1ccc(OC)c(OC)c1)C(=O)CSc1nc(CC(=O)O)cs1 [CBK296643]	94.5057
Cc1cc(C)cc(NC(=O)C2C3C=CC(O3)C2C(=O)O)c1 (stereo not shown) [CBK262642]	99.7028
CCCn1c(C)nnc1CN(CC1CCCO1)C1CCC(C)CC1 (stereo not shown) [CBK304485]	47.6879
COc1nnc(-c2ccc(C)cc2)c2ccccc12 [CBK263466]	95.0262
CN(C)CC1CCCCN1C(=O)C1CC(=O)N(c2cccc(F)c2)C1 (stereo not shown) [CBK282192]	56.4601
NNc1ccc(/C=C/c2ccc(NN)cc2S(=O)(=O)O)c(S(=O)(=O)O)c1 [CBK278163N]	106.29
CCOC(=O)N1CCC(NS(=O)(=O)c2ccc3c(c2)oc(=O)n3C)CC1 [CBK304666]	66.6701
Cc1nc(C)n(CC2CCCN(S(=O)(=O)c3cnc4ccsc4c3)C2)n1 (stereo not shown) [CBK306274]	79.5974
Cc1ccc(C)c(C(C)NC(=O)C2CCCN(S(C)(=O)=O)C2)c1 (stereo not shown) [CBK304672]	61.25
NS(=O)(=O)c1ccc(CCNC2CC(=O)N(Cc3ccccc3)C2=O)cc1 (stereo not shown) [CBK267439]	103.812
Cc1[nH]c2cccc(C(=O)N(C)CCc3cn[nH]c3)c2c1C [CBK283070]	107.174
Cn1nnc2cc(NCC34CC3CN(C(=O)OC(C)(C)C)C4)ccc21 (stereo not shown) [CBK304758]	48.9446
O=C(CSc1ccc2nnc(-c3ccc(F)cc3)n2n1)N1CCCCC1 [CBK287520]	96.134
N#Cc1cccc(CN2C[C@H](O)C[C@H]2c2nc(Cc3ccccc3)no2)c1 [CBK288842]	109.385
Cc1cc(CN(C)C(=O)c2cccc(NC(=O)C3CCCCC3)c2)no1 [CBK305722]	49.2481
CN(C)CC(C)(C)CNC(=O)c1cc(-c2ccc(Cl)cc2)on1 [CBK116561]	102.699
